# Assay results: the supplement of paper PMC5499739
# In all, about 16,000 sequences were measured (“Z-score”: median about -0.37, highest 2% from about 3.1 on). The list shows a part of the results.
# Tested on: RBM10 RRM1-ZnF-RRM2 (GST-tagged construct)
# Assay: RNAcompete 7-mer binding Z-score; higher = stronger binding preference
# Outline: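 GST-tagged RBM10 constructs (20 pmol) and a designed pool of 241 399 RNAs up to 41 nt (1.5 nmol) were allowed to bind for 30 min at 4°C in 1 ml Hepes pH 7.8 buffer with glutathione Sepharose beads. After four 2-min washes at 4°C, bound RNA was identified by microarray hybridisation. Enrichment was scored per heptamer motif as a one-sided Z-score across the probes containing it.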
row,Sequence,RNAcompete 7-mer binding Z-score
1,CUUCAGG,-0.26
2,CGGUUGU,-0.00148
3,GAGACCC,-0.588
4,CACGAUG,-0.286
5,UCAUAAU,-0.839
6,CGCCGGG,0.122
7,CCCGCAU,-0.755
8,UCUAUAG,-0.464
9,CUCCCAU,-0.686
10,UCGCUUU,-0.77
11,GACGUGU,0.111
12,AGCUUAG,-0.464
13,CGAGCAU,-0.129
14,UCAGGAA,0.993
15,UCGGCCA,-0.581
16,UGGAACG,1.92
17,AAAAUCG,-0.409
18,AAAUUAC,-0.621
19,CUGCUAA,-0.876
20,AUUUAAA,-0.592
21,GGUUGCC,0.206
22,CCCGACU,-0.748
23,ACCAAAU,-0.253

row,Sequence,RNAcompete 7-mer binding Z-score
1,UGGUUGU,1
2,UGGAUGU,1.19
3,UUAAACA,-0.562
4,GGGCUAU,0.869
5,AAUUCUC,-0.69
6,CCAGAGA,0.166
7,CACCUCG,-0.479
8,AAGCGCC,-0.46
9,GCGCAUU,-0.439
10,UGGAUGG,3.42
11,GUUUAAG,0.243
12,CGUCCGU,-0.592
13,GUAGGAA,2.37
14,CUGCCCA,-0.584
15,CACGGGU,1.78
16,AGACUAG,-0.078
17,UAUAAUC,-0.428
18,GAUAAGG,3.81
19,CCAUGCU,-0.876
20,AGAACAG,0.596
21,GACAGGU,2.38
22,GUGAUUG,0.508
23,UAUGCAG,0.279

row,Sequence,RNAcompete 7-mer binding Z-score
1,UCUAUGA,-0.595
2,AGUGGAG,3
3,ACGGAGC,1.18
4,UUAGCUA,-0.533
5,UGUGCUA,-0.38
6,CCAUUUU,-1.08
7,AGCUUCA,-0.683
8,UGUGUAU,-0.165
9,GCGCCAG,0.166
10,UGGGUAA,2.38
11,AAACAGG,2.71
12,AUCUGAG,-0.449
13,AGGUCCU,-0.471
14,AAAUCCG,-0.646
15,AUUGCUU,-0.752
16,CCAUGGC,-0.271
17,GCCGGCG,-0.209
18,AGUUCGC,-0.5
19,GUAUGCA,0.479
20,GCAAGUU,-0.00512
21,UCAGUUA,-0.282
22,GAAGUGG,3.12
23,GCAUAAA,-0.191

row,Sequence,RNAcompete 7-mer binding Z-score
1,AUGCGGU,1
2,UCCGAAU,-0.839
3,CGGUUCA,-0.318
4,GUUAGGA,1.91
5,UCUGGAC,-0.34
6,AGAUAAA,0.148
7,GCAACCA,0.0058
8,AGAAUGC,-0.26
9,GGUUGGC,2.03
10,CAGGAUA,1.21
11,GCCAUGA,-0.439
12,GGCAUGC,0.228
13,GUAUGAG,1.09
14,CUAGAGA,-0.107
15,AUACUAU,-0.624
16,GGAAGGC,3.04
17,GACUUCG,-0.661
18,UAACUUG,-0.602
19,AACAGCC,-0.624
20,AAAACGA,0.0896
21,UGUCAUG,-0.351
22,GGCUAUC,-0.544
23,GGGCGUA,2.28

row,Sequence,RNAcompete 7-mer binding Z-score
1,ACGGGGA,2.84
2,UUCUUAU,-0.744
3,GAUGGAU,2.3
4,UGGUAGU,0.585
5,AUGGGCG,3
6,CCGUCGU,-0.511
7,AGUGGUC,0.552
8,CCCGUAG,-0.537
9,AUUUAGG,0.694
10,AGGAAAA,1.75
11,CCAGAGG,0.621
12,CCCAGCG,-0.311
13,GUGCGUG,1.03
14,UCAGUGG,1.07
15,UGCUUCC,-0.868
16,GACAGAU,-0.0816
17,GGACGAU,0.661
18,ACCAGCG,0.0131
19,AUUAACG,-0.293
20,UCCGAAC,-0.635
21,AUACAGA,-0.0415
22,GUCUAGU,-0.238
23,GGUAGCU,0.683

row,Sequence,RNAcompete 7-mer binding Z-score
1,CAAACAA,-0.205
2,UGCCAUC,-0.803
3,CAUCAGG,0.374
4,GCCAUGC,-0.661
5,CCUUGUG,-0.857
6,GCCCUGA,-0.752
7,AACUUUG,-0.65
8,UGCAGAU,-0.0452
9,GGGUCCG,1.71
10,UGCACUC,-0.621
11,GCGCCCG,-0.559
12,AUACACG,-0.238
13,GCAGUGC,0.141
14,AUUGUAG,0.275
15,GCGGGUC,1.97
16,GAAACGG,2.22
17,UGAGCCA,-0.3
18,AUUAAUU,-0.617
19,ACCAACU,-0.683
20,GUGCUAG,0.268
21,UGUCUCA,-0.723
22,UCGUGGG,2.23
23,UUAGGAC,0.567

row,Sequence,RNAcompete 7-mer binding Z-score
1,GUCGUGG,1.43
2,CAGCUGA,-0.424
3,CUCACAG,-0.351
4,ACAGGGA,3.47
5,CGCAGGA,0.647
6,CCGGCAU,-0.799
7,GGGGUAC,2.82
8,GUAUCAC,-0.0925
9,AAUCUUU,-0.752
10,UUCUUUC,-0.697
11,UCGUGAA,-0.26
12,AUGCGCG,-0.0889
13,GUUAGUU,0.0167
14,UACGAUA,0.00944
15,ACUUCAG,-0.526
16,AUGCUCU,-0.974
17,UGCGGCG,1.03
18,UAGUGCG,0.548
19,GUCAACG,0.301
20,CGAAGGC,0.829
21,AUUUUGC,-0.992
22,CUAGAGC,-0.468
23,CUACGUU,-0.697

row,Sequence,RNAcompete 7-mer binding Z-score
1,AUGGUUG,2.02
2,GUUCCGA,-0.541
3,ACAAAUG,0.359
4,GAGGCGU,1.06
5,ACUGCAC,-0.592
6,AGAGAUG,1.17
7,GUCUCUC,-0.719
8,AGAUGCC,-0.916
9,UCUUGAA,-0.868
10,UGCCCUU,-0.832
11,AACCUGU,-0.697
12,AAUCGCA,-0.347
13,CACUAGA,-0.213
14,UUCAAGG,0.312
15,AAGGGUC,2.01
16,AAUUUAA,-0.602
17,AUGGGGG,3.84
18,UACUGCA,-0.493
19,UCUCGUC,-0.726
20,AGUCCCG,-0.358
21,AUUGAUC,-0.282
22,ACCAAGU,-0.329
23,AAGCAUA,0.0641
